Experimental data as given in the supplement of paper PMC8728848.
This is one part of the list.

Legend:
Assay in all cases: glycan array binding signal (z-score within array); higher = stronger binding
Settings in all cases: glycan notation: IUPAC condensed, linker removed
[1] = biological target: Fuc(a1-2)Gal6S(b1-4)GlcNAc
Summary of the method: (§1)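 Columns mapping to the same glycan were averaged after glycan names were converted to IUPAC-condensed notation. The data come from 3228 arrays in the Consortium for Functional Glycomics database, limited to those with an available protein sequence. Binding is reported as a within-array Z-score averaged across arrays of one protein sequence and across linkers.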

[2] = biological target: Fuc(a1-2)[Gal(a1-3)]Gal
Summary of the method: as §1

[3] = biological target: Fuc(a1-2)[Gal(a1-3)]Gal(b1-3)GalNAc
Summary of the method: as §1

[4] = biological target: Fuc(a1-2)[Gal(a1-3)]Gal(b1-3)GalNAc(b1-3)Gal(a1-4)Gal(b1-4)Glc
Summary of the method: as §1

[5] = biological target: Fuc(a1-2)[Gal(a1-3)]Gal(b1-3)GlcNAc
Summary of the method: as §1

[6] = biological target: Fuc(a1-2)[Gal(a1-3)]Gal(b1-3)GlcNAc(b1-2)Man(a1-3)[Fuc(a1-2)[Gal(a1-3)]Gal(b1-3)GlcNAc(b1-2)Man(a1-6)]Man(b1-4)GlcNAc(b1-4)GlcNAc
Summary of the method: as §1

[7] = biological target: Fuc(a1-2)[Gal(a1-3)]Gal(b1-3)GlcNAc(b1-2)Man(a1-3)[Fuc(a1-2)[Gal(a1-3)]Gal(b1-3)GlcNAc(b1-2)Man(a1-6)]Man(b1-4)GlcNAc(b1-4)[Fuc(a1-6)]GlcNAc
Summary of the method: as §1

[8] = biological target: Fuc(a1-2)[Gal(a1-3)]Gal(b1-3)GlcNAc(b1-3)GalNAc
Summary of the method: as §1

[9] = biological target: Fuc(a1-2)[Gal(a1-3)]Gal(b1-3)GlcNAc(b1-6)GalNAc
Summary of the method: as §1

[10] = biological target: Fuc(a1-2)[Gal(a1-3)]Gal(b1-4)Glc
Summary of the method: as §1

[11] = biological target: Fuc(a1-2)[Gal(a1-3)]Gal(b1-4)GlcNAc
Summary of the method: as §1

[12] = biological target: Fuc(a1-2)[Gal(a1-3)]Gal(b1-4)GlcNAc(b1-2)Man
Summary of the method: as §1

[13] = biological target: Fuc(a1-2)[Gal(a1-3)]Gal(b1-4)GlcNAc(b1-2)Man(a1-3)[Fuc(a1-2)[Gal(a1-3)]Gal(b1-4)GlcNAc(b1-2)Man(a1-6)]Man(b1-4)GlcNAc(b1-4)GlcNAc
Summary of the method: as §1

[14] = biological target: Fuc(a1-2)[Gal(a1-3)]Gal(b1-4)GlcNAc(b1-2)Man(a1-3)[Fuc(a1-2)[Gal(a1-3)]Gal(b1-4)GlcNAc(b1-2)Man(a1-6)]Man(b1-4)GlcNAc(b1-4)[Fuc(a1-6)]GlcNAc
Summary of the method: as §1

[15] = biological target: Fuc(a1-2)[Gal(a1-3)]Gal(b1-4)GlcNAc(b1-3)GalNAc
Summary of the method: as §1

[16] = biological target: Fuc(a1-2)[Gal(a1-3)]Gal(b1-4)GlcNAc(b1-3)[Fuc(a1-2)[Gal(a1-3)]Gal(b1-4)GlcNAc(b1-6)]GalNAc
Summary of the method: as §1

[17] = biological target: Fuc(a1-2)[Gal(a1-3)]Gal(b1-4)GlcNAc(b1-6)GalNAc
Summary of the method: as §1

[18] = biological target: Fuc(a1-2)[Gal(a1-3)]Gal(b1-4)[Fuc(a1-3)]Glc
Summary of the method: as §1

[19] = biological target: Fuc(a1-2)[Gal(a1-3)]Gal(b1-4)[Fuc(a1-3)]GlcNAc
Summary of the method: as §1

[20] = biological target: Fuc(a1-2)[Gal(a1-3)]Gal(b1-4)[Fuc(a1-3)]GlcNAc(b1-3)GalNAc
Summary of the method: as §1

[21] = biological target: Fuc(a1-2)[Gal(a1-4)]Gal(b1-4)GlcNAc
Summary of the method: as §1

[22] = biological target: Fuc(a1-2)[GalNAc(a1-3)]Gal
Summary of the method: as §1

[23] = biological target: Fuc(a1-2)[GalNAc(a1-3)]Gal(b1-3)GalNAc(a1-3)[Fuc(a1-2)]Gal(b1-4)GlcNAc
Summary of the method: as §1

B1: Gal 1 (Mus musculus), P16045 (protein)
chain: MACGLVASNLNLKPGECLKVRGEVASDAKSFVLNLGKDSNNLCLHFNPRFNAHGDANTIVCNTKEDGTWGTEHREPAFPFQPGSITEVCITFDQADLTIKLPDGHEFKFPNRLNMEAINYMAADGDFKIKCVAFE
glycan array binding signal (z-score) [1]: -0.185
glycan array binding signal (z-score) [2]: -0.365
glycan array binding signal (z-score) [3]: -0.363
glycan array binding signal (z-score) [4]: -0.398
glycan array binding signal (z-score) [5]: 0.982
glycan array binding signal (z-score) [6]: -0.154
glycan array binding signal (z-score) [7]: -0.208
glycan array binding signal (z-score) [8]: -0.269
glycan array binding signal (z-score) [9]: -0.272
glycan array binding signal (z-score) [10]: -0.308
glycan array binding signal (z-score) [11]: -0.078
glycan array binding signal (z-score) [12]: -0.291
glycan array binding signal (z-score) [13]: 0.106
glycan array binding signal (z-score) [14]: 0.008
glycan array binding signal (z-score) [15]: -0.361
glycan array binding signal (z-score) [16]: -0.279
glycan array binding signal (z-score) [17]: -0.106
glycan array binding signal (z-score) [18]: -0.455
glycan array binding signal (z-score) [19]: -0.297
glycan array binding signal (z-score) [20]: -0.325
glycan array binding signal (z-score) [21]: -0.404
glycan array binding signal (z-score) [22]: -0.302
glycan array binding signal (z-score) [23]: -0.382
